From paper PMC4336329 (PLoS ONE, 2015)
About 14,000 (4.5%) of roughly 310,000 compounds showed an effect of 50% or more. The effect is printed as a negative number. The list shows a part of the results.

Molecular target: human ether-à-go-go-related gene (hERG) potassium channel (human, UniProt Q12809)
Assay: primary screen, population patch clamp on CHO cells stably expressing hERG
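Also: peak tail current of the secondary pulse compared with the same well before compound.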

Sequence of human ether-à-go-go-related gene (hERG) potassium channel (Q12809 whole entry, looked up): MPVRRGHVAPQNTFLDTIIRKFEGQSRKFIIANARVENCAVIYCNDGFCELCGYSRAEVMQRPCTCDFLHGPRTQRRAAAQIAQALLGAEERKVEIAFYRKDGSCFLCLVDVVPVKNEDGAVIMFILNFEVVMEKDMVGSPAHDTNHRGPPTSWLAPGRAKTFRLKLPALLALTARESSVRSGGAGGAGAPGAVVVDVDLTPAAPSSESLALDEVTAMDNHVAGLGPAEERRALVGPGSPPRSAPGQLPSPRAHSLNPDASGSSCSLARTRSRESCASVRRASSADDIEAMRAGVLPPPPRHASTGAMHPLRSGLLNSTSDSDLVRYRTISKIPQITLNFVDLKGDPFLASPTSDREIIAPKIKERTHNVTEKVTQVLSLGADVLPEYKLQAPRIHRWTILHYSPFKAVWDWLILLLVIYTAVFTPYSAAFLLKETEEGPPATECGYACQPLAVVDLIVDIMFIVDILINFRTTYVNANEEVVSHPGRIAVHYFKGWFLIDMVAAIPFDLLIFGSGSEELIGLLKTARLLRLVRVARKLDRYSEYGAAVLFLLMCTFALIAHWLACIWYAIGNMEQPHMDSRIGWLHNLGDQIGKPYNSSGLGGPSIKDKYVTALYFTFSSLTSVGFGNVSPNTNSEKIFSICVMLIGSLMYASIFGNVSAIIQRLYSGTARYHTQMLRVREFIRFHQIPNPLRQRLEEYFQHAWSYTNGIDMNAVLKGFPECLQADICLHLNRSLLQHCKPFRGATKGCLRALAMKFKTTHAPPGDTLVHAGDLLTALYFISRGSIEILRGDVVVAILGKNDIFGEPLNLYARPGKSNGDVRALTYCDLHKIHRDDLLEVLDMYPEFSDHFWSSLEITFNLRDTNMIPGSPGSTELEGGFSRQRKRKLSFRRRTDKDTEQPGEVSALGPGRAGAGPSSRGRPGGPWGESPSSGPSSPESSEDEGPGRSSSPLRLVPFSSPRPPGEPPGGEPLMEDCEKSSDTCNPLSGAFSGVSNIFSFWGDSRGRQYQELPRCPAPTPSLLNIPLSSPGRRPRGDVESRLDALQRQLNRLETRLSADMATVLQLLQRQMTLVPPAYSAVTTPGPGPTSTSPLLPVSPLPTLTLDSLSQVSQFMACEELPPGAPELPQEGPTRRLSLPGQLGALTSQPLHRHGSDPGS

SMILES	hERG current change (%, negative = inhibition) at 10uM [%]
Cc1ccnc(NC(=O)c2cccc(NC(=O)Cc3ccccc3)c2)c1	-15.8
CCOc1ccccc1C1C(C#N)=C(N)N(N(C)C)C2=C1C(=O)CCC2 (centres unmarked)	-9.28
Cc1ccc(S(=O)(=O)NCC[C@@]2(C)C3CCC2(C)C(=O)C3)cc1 (some centres unmarked)	0.675
COc1ccc(OCc2nnc(SCC(=O)c3ccccc3)o2)cc1	-0.982
COc1ccc(-c2cn(Cc3ccc4ccccc4c3)nn2)cc1	19.3
COc1cc2c(cc1OC)-c1c(OC)c(OC)c(OC)c3ccnc(c13)C2=O	-53.8
COc1cccc(NC(=O)CN(C)C(=O)C2CCN(C(=O)c3ccccc3C)CC2)c1	1.58
CCOc1cc(-c2sc(Nc3cc(C)ccc3OC)n[n+]2-c2ccccc2)ccc1OC.[Cl-]	-68.7
Cc1sc(NC(=O)/C=C/C(=O)O)c(C(N)=O)c1-c1ccc(C(C)(C)C)cc1	-23.7
Cc1cccc(Oc2coc3cc(OC(=O)c4cncc(Br)c4)ccc3c2=O)c1	-5.03
Cc1cc(C(=O)NNC(=S)NCC2CCCO2)cs1 (centres unmarked)	-8.52
O=C(CCCNC(=O)c1ccc(Cl)cc1)Nc1ccc(F)c(S(=O)(=O)N2CCOCC2)c1	-33.6
CS(=O)(=O)N(CC(=O)NC1CCCC1)c1ccc2c(c1)OCCO2	0.395
COc1ccc(Cn2ccnc2SCC(=O)Nc2ccccc2)cc1	-13.4
COc1cc(/C=C(/C(=O)O)c2ccc(-c3ccccc3)cc2)cc(OC)c1OC	4.69
CCOC(=O)N1CCC(N2CCCC(CO)(Cc3cccc(OC)c3)C2)CC1 (centres unmarked)	-51.7
Cc1ccc(S(=O)(=O)NC2CC2)cc1[N+](=O)[O-]	5.91
O=C(CCc1nc(-c2ccc(Cl)cc2)no1)NC1CCCC1	7.7
Cn1cc(CN2CC3C[C@@H]4CC2C[C@H](C3)C4)c(-c2ccc3c(c2)OCCO3)n1	-8.66
Cc1ccccc1NC(=O)c1cn(-c2ccccc2)nc1-c1ccccc1	0.928
O=C1C2CC=CCC2C(=O)N1c1cccc(OS(=O)(=O)c2ccc3ccccc3c2)c1 (centres unmarked)	0.32
COC(=O)c1cc(NCc2cccs2)ccc1N1CCOCC1	-1.69
O=C(Nc1ccc(S(=O)(=O)N2CCc3ccccc3C2)cc1)c1ccccc1	9.73
